Assay results as given in the supplement of paper PMC12217912.
This is one part of the list. Sequences were assembled here from the parent chain. Inactive controls read about 0.05.

B1: TEV protease; numbered along this chain (parent)
chain: MGESLFKGPRDYNPISSSICHLTNESDGHTTSLYGIGFGPFIITNKHLFRRNNGTLVVQSLHGVFKVKDTTTLQQHLVDGRDMIIIRMPKDFPPFPQKLKFREPQREERICLVTTNFQTKSMSSMVSDTSCTFPSGDGIFWKHWIQTKDGQCGSPLVSTRDGFIVGIHSASNFTNTNNYFTSVPKNFMELLTNQEAQQWVSGWRLNADSVLWGGHKVFMVKPEEPFQPVKEATQL

Variants of: B1
Experiment: raw area under fraction-flipped curve 0-4 h after induction (AUC4h, not background-subtracted), DNA-recorder readout of cleavage of the substrate (dimensionless); higher = more cleavage of the substrate by the protease variant
Conditions: temperature: 34 °C; time window: 0-4 h after rhamnose induction
Experimental: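 In vivo DNA recorder in E. coli TOP10(DE3) ΔrhaA at 34 °C. Each TEVp single-site mutant (parent TEVp 0) is paired with a single-site variant of the 7-mer TEVs (canonical ENLYFQ|S). The substrate sits between flexible linkers in a Bxb1-sfGFP-TEVs-SsrA fusion, so cleavage stabilises Bxb1 and speeds flipping of a recombination array, read by NGS. The value is the raw area under the fraction-flipped curve over 0-4 h after rhamnose induction (AUC4h), with ≥20 reads per time point. It is not background-subtracted; inactive controls average about 0.047.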
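Also: Bxb1 expression induced with 0.2% (w/v) L-rhamnose at OD600 near 0.5, cultures sampled hourly, flipped fraction per protease–substrate barcode pair counted by paired-end Illumina sequencing.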

| Variant | area with substrate ENLAFQS | area with substrate ENLCFQS | area with substrate ENLDFQS | area with substrate ENLFFQS | area with substrate ENLHFQS | area with substrate ENLIFQS | area with substrate ENLKFQS | area with substrate ENLMFQS | area with substrate ENLNFQS | area with substrate ENLQFQS | area with substrate ENLRFQS | area with substrate ENLSFQS | area with substrate ENLTFQS | area with substrate ENLWFQS | area with substrate ENLEFQS | area with substrate ENLLFQS | area with substrate ENLPFQS | area with substrate ENLVFQS | area with substrate ENLGFQS |
| --- | --- | --- | --- | --- | --- | --- | --- | --- | --- | --- | --- | --- | --- | --- | --- | --- | --- | --- | --- |
| N52Y | 0.0614 | 0.0533 | 0.0732 | 0.0497 | 0.0513 | 0.0462 | 0.0626 | 0.0673 | 0.0557 | 0.0719 | 0.0634 | 0.0399 | 0.0713 | 0.0467 |  |  |  |  |  |
| V78G | 0.0649 | 0.0208 | 0.0689 |  | 0.0611 | 0.0818 |  |  | 0.0572 | 0.0632 | 0.0491 | 0.0662 |  | 0.0827 | 0.0813 | 0.051 | 0.0519 | 0.0534 |  |
| V78A | 0.062 |  | 0.062 | 0.0556 | 0.0454 | 0.073 | 0.0668 | 0.0747 | 0.0603 | 0.0622 | 0.0522 | 0.0737 |  | 0.0649 | 0.0531 | 0.0394 |  |  |  |
| V57T | 0.056 | 0.0784 | 0.0567 | 0.0713 | 0.0737 | 0.0986 | 0.0922 |  | 0.0624 |  |  | 0.0728 |  | 0.0219 |  |  |  |  | 0.0729 |
| V57K | 0.0634 |  | 0.056 | 0.0765 | 0.0635 | 0.092 | 0.0772 | 0.0708 | 0.0702 | 0.106 | 0.0527 | 0.0562 |  |  | 0.0661 |  | 0.101 |  | 0.0694 |
| F65R | 0.0723 | 0.0732 | 0.0635 | 0.0795 | 0.0684 |  | 0.07 |  | 0.0654 | 0.0704 | 0.0803 | 0.0534 |  | 0.0553 | 0.041 |  |  |  | 0.0741 |
| F65E | 0.101 |  | 0.052 | 0.0833 |  |  | 0.0933 | 0.0828 |  | 0.0632 | 0.057 | 0.0481 |  | 0.0712 | 0.0735 |  |  |  | 0.0609 |
| K66F | 0.0823 |  | 0.0682 | 0.0973 | 0.068 | 0.0892 | 0.0685 |  | 0.0567 | 0.0619 | 0.0668 | 0.0679 |  | 0.0593 | 0.0755 | 0.0876 |  |  | 0.0589 |
| K66R | 0.0705 |  | 0.0643 | 0.089 |  | 0.0862 | 0.0941 |  | 0.061 | 0.0634 |  | 0.0508 | 0.0694 |  | 0.0583 |  | 0.0684 | 0.0608 | 0.0476 |
| R81I | 0.0761 |  | 0.0559 | 0.0836 | 0.0619 | 0.0873 |  |  | 0.0631 | 0.0619 |  | 0.0713 |  | 0.0604 |  | 0.0661 | 0.0635 |  |  |
| R81G | 0.0755 |  | 0.0647 | 0.0708 |  | 0.0626 | 0.0593 |  |  | 0.0597 | 0.0762 | 0.0721 |  |  |  |  | 0.0533 |  | 0.0696 |
| H76E | 0.0529 | 0.0697 | 0.0648 | 0.0768 | 0.0545 |  | 0.0503 |  | 0.0563 | 0.056 | 0.0323 | 0.0701 |  | 0.0637 | 0.0622 | 0.0105 | 0.0611 |  |  |
| D69Q | 0.0407 | 0.0693 | 0.0631 | 0.0905 | 0.0638 | 0.0962 | 0.082 |  | 0.0625 | 0.0549 | 0.0744 | 0.0541 |  | 0.0674 |  | 0.111 | 0.061 | 0.0802 |  |
| D69H | 0.0543 |  | 0.0379 | 0.0868 | 0.0815 | 0.0733 | 0.0777 | 0.0735 | 0.0546 | 0.0653 | 0.0581 | 0.0657 |  | 0.0627 | 0.0588 | 0.084 | 0.0653 | 0.09 | 0.059 |
| G63I | 0.0477 |  | 0.0504 | 0.0827 | 0.0531 | 0.07 | 0.0805 |  | 0.0611 |  |  | 0.0781 |  |  | 0.0852 |  | 0.0451 |  |  |
| G63F | 0.0621 | 0.0556 | 0.0786 | 0.0736 | 0.0736 |  | 0.0669 | 0.0797 | 0.074 | 0.0609 | 0.0787 | 0.061 |  |  |  |  | 0.0455 | 0.0867 |  |
| G63N | 0.0582 |  | 0.0481 |  |  |  | 0.0694 |  | 0.0607 |  | 0.052 | 0.0723 | 0.0678 | 0.062 |  | 0.0567 | 0.0412 |  | 0.0735 |
| N53A | 0.0761 |  | 0.0562 | 0.104 |  | 0.0686 | 0.0778 | 0.0775 | 0.0591 | 0.0628 | 0.0617 | 0.0677 |  |  | 0.0623 | 0.065 | 0.0627 |  | 0.0448 |
| S60F | 0.0602 | 0.0924 | 0.0424 | 0.115 |  | 0.0743 | 0.0156 | 0.0637 | 0.0516 | 0.0778 |  | 0.0643 |  | 0.0665 | 0.0616 |  | 0.0673 | 0.0855 |  |
| S60V | 0.0592 | 0.0879 | 0.0654 | 0.0732 | 0.0567 | 0.0729 | 0.0376 | 0.0745 | 0.0648 |  | 0.0645 | 0.034 |  | 0.0623 | 0.0597 | 0.0477 | 0.0689 | 0.0811 | 0.0514 |
| I85C | 0.0298 |  | 0.0582 | 0.068 | 0.0326 |  | 0.102 | 0.0701 | 0.0534 |  | 0.0549 | 0.0574 |  | 0.0548 | 0.0564 |  | 0.0735 | 0.0661 | 0.0611 |
| L77T | 0.0657 |  |  | 0.0626 |  | 0.0544 | 0.0648 | 0.0682 |  | 0.0602 |  | 0.0603 |  |  | 0.0684 |  |  |  |  |
| L61N | 0.075 |  | 0.0596 | 0.0856 |  |  | 0.0687 | 0.0871 | 0.0552 | 0.0771 |  | 0.065 | 0.0729 |  |  | 0.0779 | 0.058 |  |  |
| T55E | 0.0686 | 0.0609 | 0.0579 | 0.0597 | 0.0703 | 0.0832 | 0.0679 |  | 0.0505 | 0.0899 | 0.0677 | 0.0615 |  | 0.0412 | 0.0824 |  | 0.0598 | 0.0839 | 0.0571 |
| T55I | 0.0685 | 0.0648 | 0.064 | 0.0788 | 0.0656 |  | 0.0753 |  | 0.0643 | 0.0903 | 0.0703 | 0.0692 | 0.0682 |  | 0.0872 | 0.0709 |  |  |  |
| V67R | 0.0523 | 0.0576 | 0.0436 | 0.055 |  | 0.0574 | 0.059 |  |  |  |  | 0.0529 |  | 0.0621 | 0.0504 | 0.0468 |  |  |  |
| T71F | 0.0668 | 0.067 | 0.0519 | 0.0892 | 0.0591 | 0.0878 | 0.0665 |  | 0.0511 | 0.068 | 0.0613 | 0.0467 |  | 0.0765 | 0.062 | 0.0584 | 0.0554 |  | 0.0513 |
